Assay results taken from patent publication US20250281631A1, “ANTIBODY-DRUG CONJUGATES AND PREPARATION METHODS AND USE THEREOF” (SICHUAN KELUN-BIOTECH BIOPHARMACEUTICAL CO., LTD, priority 2022, published 2025).

Assays:
HEK293T-h HER3 cells [1] = experiment: In vitro cytotoxicity of anti-human HER3 ADCs (CCK8, 6 days); assay type: cell-based; conditions: result in words; Table 33, FIGS. 2A-2C
Text: 2. In Vitro Cytotoxicity of Anti-Human HER3 Antibody-Drug Conjugates

HEK293T-h HER3 cells [2] = experiment: Bystander effect test, positive cells alone (flow cytometry, PI); assay type: cell-based, human; conditions: 4 days
Protocol: 3. Bystander Effect of Anti-Human HER3 Antibody-Drug Conjugates
HEK293T and HEK293T-h HER3 cells were digested with 0.25% Trypsin-EDTA (manufacturer: Gibco), counted, and an appropriate amount of the cells were taken, washed twice with 1×PBS, the cell density was adjusted to 1×10^6 cells/ml, and then Cell Trace Violet was added to reach a final concentration of 5 μM for labeling, mixed well and incubated in an incubator for 20 min, then the cells were washed with growth medium and counted, plated on 24-well plates (500 μl/well) according to the following ratios: HEK293T-labeled: HEK293T=4000:12000 cells/well, HEK293T-labeled: HEK293T-h HER3=4000:12000 cells/well, HEK293T-h HER3-labeled: HEK293T-h HER3=4000:12000 cells/well, and cultured overnight at 37° C., 5% CO2;
On the next day, ADC was diluted with growth medium to reach concentrations of 20 nM, 4 nM, and 0.8 nM, then 500 μl of the diluted ADC was taken and added to the corresponding 24-well plates containing cells, and the plates were placed and cultured in an incubator at 37° C., 5% CO2 for 4 days;
HEK293T and HEK293T-h HER3 cells were digested with 0.25% Trypsin-EDTA, added to a growth medium containing PI with a final concentration of 3 μM, mixed well, incubated at room temperature for 15 min, and then detected by flow cytometry (Thermo, model: Attune NxT).

[3] = system: NCI-N87 gastric cancer xenograft model; experiment: In vivo drug efficacy in NCI-N87 CDX model; set-up: species or system female BALB/c-nu mice; conditions: 3 mg/kg
Text: (§1) The following formula was used to calculate the tumor growth inhibition rate TGI (%), which was used to evaluate the tumor inhibitory efficacy:
(§2) [formula] • wherein, • VTend represented a mean value of tumor volume at the end of the experiment in a treatment group • VTstart represented a mean value of tumor volume at the beginning of the administration in a treatment group • VCend represented a mean value of tumor volume at the end of the experiment in the negative control group • VCstart represented a mean value of tumor volume at the beginning of the administration in the negative control group
6. Detection of In Vivo Drug Efficacy of Anti-Human HER3 Antibody-Drug Conjugates in N87 Model
NCI-N87 cells were cultured at 37° C. with 5% CO2 in RPMI1640 medium containing 10% fetal bovine serum. The NCI-N87 cells in the exponential growth phase were collected, resuspended in PBS to an appropriate concentration, and inoculated subcutaneously in female BALB/c-nu mice to establish a human gastric cancer model. When the average volume of tumor was about 120 mm^3, the animals are randomly divided into groups according to the tumor size, including: vehicle control group, hIgG1-A-07-A 3 mg/kg group, ADC 22B6-A-07-A-1 3 mg/kg group, ADC 47A3-A-07-A 3 mg/kg group, and ADC 100H7-A-07-A 3 mg/kg group. All animals were administered via injection through tail vein on Day 0, Day 4 and Day 7, and 3 times in total. After administration, the tumor diameter was measured twice a week with a vernier caliper, and the tumor volume was calculated according to the following formula: V=0.5 a×b^2, wherein a and b represented the long and short diameters of tumor, respectively, and the death of animals was observed and recorded every day.

[4] = system: NCI-H358 non-small cell lung cancer xenograft model; experiment: In vivo drug efficacy in NCI-H358 CDX model; set-up: species or system female BALB/c-nu mice; conditions: 3 administrations, Day 32; for T/C / TGI / Tumor volume (x ± SEM): tail vein injection; for tumor growth inhibition rate (TGI): tail vein
Protocol: 5. Detection of In Vivo Drug Efficacy of Anti-Human HER3 Antibody-Drug Conjugates in H358 Model
NCI-H358 cells were cultured at 37° C., 5% CO2 in RPMI1640 medium containing 10% fetal bovine serum. The NCI-H358 cells in the exponential growth phase were collected, resuspended in PBS to an appropriate concentration, and inoculated subcutaneously in female BALB/c-nu mice to establish a non-small cell lung cancer model. When the average volume of the tumor was about 130 to 150 mm^3, the animals were randomly divided into 11 groups according to tumor size, including: vehicle control group (i.e., negative control group), hIgG1-A-01 1 mg/kg group, U1-59-A-01 1 mg/kg group, ADC 22B6-A-01 1 mg/kg group, hIgG1-B-01 1 mg/kg group, ADC 22B6-B-01 1 mg/kg group, hIgG1-A-07-A 1 mg/kg group, ADC 22B6-A-07-A-1 1 mg/kg and 3 mg/kg groups, hIgG1-B-03-1 1 mg/kg group, ADC 22B6-B-03-1 1 mg/kg group. All animals were administered via injection through tail vein on Day 0, Day 1, Day 4 and Day 10, 3 times in total. After administration, the tumor diameter was measured twice a week with a vernier caliper, and the tumor volume was calculated according to the following formula: V=0.5 a×b^2, wherein a and b represented the long and short diameters of the tumor, respectively, and the death of animals was observed and recorded every day.
as §1, §2

[5] = tail vein injection Day 0, 4, 7, Day 32

B1: 22B6-A-07-A-1: ADC of antibody 22B6D2-hIgG1 conjugated to drug-linker A-07-A, DAR 7.99 (conjugate)
heavy: EVHLVESGGGVVQPGRSLRLSCATSGFTFRSYGMHWVRQAPGKGLEWVAVIWYDGSNKYYADSVKGRFTISRDISKNTLYLQMNSLTAEDTAVYYCARYYYDSNGYYDAFDIWGQGTMVTVSSASTKGPSVFPLAPSSKSTSGGTAALGCLVKDYFPEPVTVSWNSGALTSGVHTFPAVLQSSGLYSLSSVVTVPSSSLGTQTYICNVNHKPSNTKVDKRV[in this place human IgG1 Fc]
light: DIQLTQSPSFLSASVGDRVTITCRASQGISNYLAWYQQKPGKAPKLLIFAASTLQSGVPSRFSGSGSGAEFTLTISSLEPEDFATYYCQQLNSYPITFGQGTRLEIKRTVAAPSVFIFPPSDEQLKSGTASVVCLLNNFYPREAKVQWKVDNALQSGNSQESVTEQDSKDSTYSLSSTLTLSKADYEKHKVYACEVTHQGLSSPVTKSFNRGEC
target-specific killing effect (HEK293T-h HER3 cells [1]): target-specific killing effect
killing of HEK293T-HER3 cells (HEK293T-h HER3 cells [2]): significant specific killing effect
T/C [3, 5]: 43.61%
TGI [3, 5]: 66.59%
Tumor volume (x ± SEM) [3, 5]: 342.37 ± 37.22 mm^3
inhibitor effect on the tumor growth ([3]; result in words): significant inhibitor effect on the tumor growth
growth inhibition rate (TGI) ([3]; tail vein, Day 0, Day 4 and Day 7, Day 32): 66.59%
T/C ([4]; 1 mg/kg): 39.63%
TGI ([4]; 1 mg/kg): 81.22%
Tumor volume (x ± SEM) ([4]; 1 mg/kg): 208.35 ± 42.59 mm^3
tumor growth inhibition rate (TGI) ([4]; 1 mg/kg): 81.22%
T/C ([4]; 3 mg/kg): 22.77%
TGI ([4]; 3 mg/kg): 111.53%
Tumor volume (x ± SEM) ([4]; 3 mg/kg): 118.71 ± 29.81 mm^3
tumor growth inhibition rate (TGI) ([4]; 3 mg/kg): 111.53%
